Experimental data reported in PubChem BioAssay AID624171 (National Center for Advancing Translational Sciences (NCATS), 2012).
Screen size: about 410,000 compounds; about 1,200 (0.29%) were called active. Inconclusive results, whose numbers are uncertain, are shown with a selection of clear calls. Calls follow the shape of the dose curve; as a rule, active = well fitted activation curve with a large enough effect; inconclusive = small, poorly fitted or top-dose-only effect; inactive = flat fitted curve, though single readings scatter. A potency beside an inconclusive call is a rough fit, not a confirmed value.

Experiment: qHTS of Nrf2 Activators; also: nearly all actives have a fitted effect of over 65% in size; as to activation: % of control where 0% means no effect
Conditions: AREc32 ARE-luciferase reporter (MCF7-derived line), luminescence, 24 h; activation: at 46.1 µM (top of the series)
Method in brief: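 For detection, Steady-Glo was added and plates sat 30 min at RT; before that, AREc32_Fluc cells grown overnight in OPTI-MEM/5% FBS had been treated with 23 nL compound for 24 hr at 37 deg C.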
Potency is read from the fitted curve at half-maximal effect; tags tell the direction and shape of the fitted curve.

Structure (SMILES) | Potency | activation
Cc1cc(C)c(C#N)c(SCC(=O)c2cccs2)n1 | inconclusive: 2.82 µM [activator, full curve, poor fit] | 
Cn1ncc(Cl)c(Oc2ccc(C(C)(C)C)cc2)c1=O | inconclusive: 25.1 µM [activator, single point] | 
CCNC(=O)C1(C)CCCN(C(=O)c2cc(-c3cccs3)oc2C)C1 (configuration not stated) | inconclusive: 22.4 µM [activator, single point] | 
O=C(N/N=C/C(Br)=C/c1ccccc1)c1ccc([N+](=O)[O-])cc1 | active: 8.91 µM | 
COc1ccc(C(=O)Nc2ncc3c(n2)CC(c2ccco2)CC3=O)cc1 (configuration not stated) | inconclusive: 15.8 µM [activator, partial curve, poor fit] | 
CCc1ccccc1NC(=O)c1noc(C(C)C)c1[N+](=O)[O-] | inconclusive: 17.8 µM [activator, single point] | 
CC1CCN(C(=O)CN2C(=O)c3cccc4cccc(c34)C2=O)CC1 | active: 11.2 µM | 
N#Cc1ccc(Cl)cc1NC(=O)CSc1cccc[n+]1[O-] | inconclusive: 15.8 µM [activator, single point] | 
COc1ncccc1-c1nnn(-c2ccc(Cl)c(Cl)c2)n1 | inconclusive: 11.2 µM [activator, partial curve, poor fit] | 
O=C(Nc1ccc(Cl)cc1)Nc1cccc2nsnc12 | inconclusive: 3.16 µM [activator, single point] | 
N#CC1(C#N)CC(C=O)=C(N)C1(C#N)CC(=O)C12CC3CC(CC(C3)C1)C2 (configuration not stated) | inconclusive: 35.5 µM [activator, single point] | 
Cc1ccc(-n2nc3ccc(NC(=O)c4ccco4)cc3n2)cc1 | inconclusive: 11.2 µM [activator, single point] | 
CC(=N\Nc1ccccc1)/C(=N/O)C(=O)Nc1ccccc1 | inconclusive: 17.8 µM [activator, single point] | 
COc1cc2c(cc1OC)C(C)N(S(=O)(=O)c1cnc(Cl)c(Cl)c1)CC2 (configuration not stated) | inconclusive: 25.1 µM [activator, single point] | 
COc1ccc(NC(=O)Nc2nnc(-c3ccco3)s2)cc1 | active: 12.6 µM | 
COc1ccc2cc3c(N)nn(C(=O)Cc4ccc(Cl)cc4)c3nc2c1 | inactive | 
O=C(/C=C/c1ccco1)NC1CCCC1 | inconclusive: 12.6 µM [activator, single point] | 
CN(C)c1ccc(N=Nc2ccccc2C(=O)OCC(=O)Nc2ccccc2C(F)(F)F)cc1 | inconclusive: 15.8 µM [activator, single point] | 
COC(=O)c1ccc(/C=C/C(=O)c2ccc(OC)cc2)cc1 | inconclusive: 22.4 µM [activator, single point] | 
CCC(CO)Oc1cc(NCc2ccc(F)cc2)c2ncn(C(C)C)c2c1 (configuration not stated) | inactive | 
O=C(N/N=C/C(Br)=C\c1ccccc1)c1ccco1 | inconclusive: 17.8 µM [activator, partial curve, poor fit] | 
COc1cc2ccccc2cc1C(=O)Nc1ccccc1C | inconclusive: 6.31 µM [activator, partial curve, poor fit] | 
CSc1nnc2n(C)c3c(c(=O)n12)C1(CCCC1)Cc1ccccc1-3 | inactive | 

Structure (SMILES) | Potency | activation
COc1ccc(S(=O)(=O)N2CCOCC2)cc1NC(=O)COC(=O)c1[nH]c(C)c(C(C)=O)c1C | inactive | 
CCOC(=O)c1c(-c2ccccc2)nc2ccccn12 | inactive | 
Cc1[nH]c2ccccc2c1C(=O)C(C)OC(=O)c1ccc([N+](=O)[O-])o1 (configuration not stated) | inconclusive: 5.01 µM [activator, single point] | 
CCc1cc(CN2CCOCC2)c(NC(=O)c2ccccc2)s1 | inconclusive: 11.2 µM [activator, partial curve, poor fit] | 
Cc1ccc(S(=O)(=O)Nc2ccc3c(c2)nc(CCN2CCCC2)n3C)cc1 | inconclusive: 35.5 µM [activator, single point] | 
Fc1ccc2nc(Nc3nc4c(F)cccc4s3)sc2c1 | inconclusive: 1.26 µM [activator, partial curve, poor fit] | 
COc1ccc(OCC(=O)N/N=C/C(C)=C/c2ccco2)c(Br)c1 | inconclusive: 17.8 µM [activator, single point] | 
S=C(NCC1CCCO1)N1CCN(c2cccc(Cl)c2)CC1 (configuration not stated) | inactive | 
COc1ccc(/C=C/C(=O)NC(=S)NNC(=O)c2cc(OC)c(OC)c(OC)c2)cc1 | inactive | 
Cc1cc(C(=O)NNC(=S)NC(=O)/C=C/c2ccccc2Cl)n[nH]1 | inconclusive: 20 µM [activator, single point] | 
CCOc1ccc2nc(S(=O)(=O)NC(=O)C3(C)CCN3C(=O)c3cc(C)n(C)n3)sc2c1 (configuration not stated) | inconclusive: 20 µM [activator, single point] | 
O=C(/C=C/c1ccc(N2CCOCC2)cc1)c1ccccc1 | inconclusive: 25.1 µM [activator, single point] | 
O=[N+]([O-])c1ccc(Cl)c(/C=N/N2CCN(c3ccccc3)CC2)c1 | active: 12.6 µM | 
Cn1c(CCN2CCCCC2)nc2cc(NS(=O)(=O)c3ccc(Cl)cc3)ccc21 | inconclusive: 31.6 µM [activator, single point] | 
CC1CCc2onc(C(=O)N3CCN(c4cccc(C(F)(F)F)c4)CC3)c2C1 (configuration not stated) | inactive | 
N/C(=N\OC(=O)c1cccc(Br)c1)c1ccccn1 | inconclusive: 0.562 µM [activator, full curve, poor fit] | 
Cc1cccc(-n2ccnc2SCC(=O)Nc2nccs2)c1C | inactive | 
CCCCn1c(/C=C/c2ccco2)nc2ccccc21 | inconclusive: 3.55 µM [activator, single point] | 
COc1ccc(O)c(-c2cc(-c3cccc(Br)c3)n[nH]2)c1 | inconclusive: 3.55 µM [activator, single point] | 
Cn1c(/C=C/c2ccccc2[N+](=O)[O-])nc2ccccc2c1=O | inconclusive: 0.562 µM [activator, full curve, poor fit] | 
CC(C)(C)C(=O)N1CCN(c2ccc(NC(=O)c3ccc([N+](=O)[O-])o3)cc2)CC1 | inconclusive: 3.16 µM [activator, partial curve, poor fit] | 
Cc1nn2c(-c3ccc(S(=O)(=O)N4CCN(C)CC4)o3)nnc2c2ccccc12 | inconclusive: 14.1 µM [activator, partial curve] | 
O=C(Nc1cccc(C(F)(F)F)c1)c1cc(Br)cc2c1OCC2 | inconclusive: 25.1 µM [activator, single point] | 

Structure (SMILES) | Potency | activation
COc1ccc(OC)c(NC(=O)c2ccc3c(c2)c(C)c(C)n3Cc2ccc(F)cc2)c1 | inactive | 
O=C(NC(CO)(CO)CO)c1coc(=O)c(Br)c1 | inconclusive: 28.2 µM [activator, single point] | 
CS(=O)(=O)N(CC(=O)Nc1cccc([N+](=O)[O-])c1)c1ccccc1F | inconclusive: 12.6 µM [activator, single point] | 
Cc1ccc(NC(=O)c2ccc([N+](=O)[O-])s2)cc1S(=O)(=O)N1CCOCC1 | inconclusive: 2.82 µM [activator, full curve, poor fit] | 
Cc1cc(O)cc2c1C(=O)/C(=C/c1ccco1)O2 | inconclusive: 1.78 µM [activator, full curve, poor fit] | 
O=C(O)COc1ccc(/C=C/C(=O)c2ccc3ccccc3c2)cc1 | inconclusive: 31.6 µM [activator, single point] | 
O=c1cc(-c2cccc(F)c2)oc2ccccc12 | inconclusive: 3.16 µM [activator, partial curve, poor fit] | 
CCn1c(SCC(=O)N/N=C/C(C)=C\c2ccco2)nnc1-c1ccccc1 | inconclusive: 10 µM [activator, partial curve] | 
O=C(COC(=O)/C=C/c1ccco1)NCc1ccccc1Cl | inconclusive: 8.91 µM [activator, partial curve] | 
CC1CCCC(C)N1C(=O)COC(=O)c1ccc([N+](=O)[O-])o1 (configuration not stated) | inconclusive: 15.8 µM [activator, single point] | 
Cc1cccc(-c2nc3scc(CCNC(=O)c4ccccc4Cl)n3n2)c1 | inconclusive: 12.6 µM [activator, partial curve] | 
CC(=O)/C(=N\Nc1ccc(Cl)cc1Cl)Sc1cccc2cccnc12 | inconclusive: 3.16 µM [activator, partial curve, poor fit] | 
CC(/C=N/NC(=O)Cc1cccs1)=C\c1ccco1 | active: 14.1 µM | 
CCOC(=O)/C=C/C(=O)OCC(=O)NC(c1ccccc1)c1ccccc1 | inconclusive: 35.5 µM [activator, partial curve, poor fit] | 
CC(/C=N/NC(=O)c1cccnc1)=C\c1ccco1 | inconclusive: 14.1 µM [activator, partial curve, poor fit] | 
CC(C)(C)OC(=O)N1CCC(c2c(C(=O)NCc3ccco3)cnn2-c2ccc(F)cc2)CC1 | inactive | 
COc1ccccc1C(=O)N1CCCC(C)(C(=O)NS(=O)(=O)C2CC2)C1 (configuration not stated) |  | inactive: -0.697% [at 9.22 µM]
O=C(NCc1csc(-c2cccs2)n1)c1ccccc1 | inconclusive: 12.6 µM [activator, partial curve, poor fit] | 
Cc1cccc2cc(CN(CCCO)C(=O)Nc3ccc(Cl)cc3)c(=O)[nH]c12 | inactive | 
CC(C)Cc1ccc(CN2CCCC(NC(=O)c3ccoc3)C2)cc1 (configuration not stated) | inactive | 
O=S(=O)(Nc1cccc(-c2ccc(N3CCCCC3)nn2)c1)c1ccc(Cl)s1 | inactive | 
